# About 14,000 (4.5%) of roughly 310,000 compounds showed an effect of 50% or more. Effects have a minus sign here. This is one part of the list.
# Biological target: human ether-à-go-go-related gene (hERG) potassium channel (human, UniProt Q12809)
# Test: primary screen, population patch clamp on CHO cells stably expressing hERG
# 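Note: peak tail current of the secondary pulse compared with the same well before compound.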
# human ether-à-go-go-related gene (hERG) potassium channel, sequence (Q12809 whole entry, looked up): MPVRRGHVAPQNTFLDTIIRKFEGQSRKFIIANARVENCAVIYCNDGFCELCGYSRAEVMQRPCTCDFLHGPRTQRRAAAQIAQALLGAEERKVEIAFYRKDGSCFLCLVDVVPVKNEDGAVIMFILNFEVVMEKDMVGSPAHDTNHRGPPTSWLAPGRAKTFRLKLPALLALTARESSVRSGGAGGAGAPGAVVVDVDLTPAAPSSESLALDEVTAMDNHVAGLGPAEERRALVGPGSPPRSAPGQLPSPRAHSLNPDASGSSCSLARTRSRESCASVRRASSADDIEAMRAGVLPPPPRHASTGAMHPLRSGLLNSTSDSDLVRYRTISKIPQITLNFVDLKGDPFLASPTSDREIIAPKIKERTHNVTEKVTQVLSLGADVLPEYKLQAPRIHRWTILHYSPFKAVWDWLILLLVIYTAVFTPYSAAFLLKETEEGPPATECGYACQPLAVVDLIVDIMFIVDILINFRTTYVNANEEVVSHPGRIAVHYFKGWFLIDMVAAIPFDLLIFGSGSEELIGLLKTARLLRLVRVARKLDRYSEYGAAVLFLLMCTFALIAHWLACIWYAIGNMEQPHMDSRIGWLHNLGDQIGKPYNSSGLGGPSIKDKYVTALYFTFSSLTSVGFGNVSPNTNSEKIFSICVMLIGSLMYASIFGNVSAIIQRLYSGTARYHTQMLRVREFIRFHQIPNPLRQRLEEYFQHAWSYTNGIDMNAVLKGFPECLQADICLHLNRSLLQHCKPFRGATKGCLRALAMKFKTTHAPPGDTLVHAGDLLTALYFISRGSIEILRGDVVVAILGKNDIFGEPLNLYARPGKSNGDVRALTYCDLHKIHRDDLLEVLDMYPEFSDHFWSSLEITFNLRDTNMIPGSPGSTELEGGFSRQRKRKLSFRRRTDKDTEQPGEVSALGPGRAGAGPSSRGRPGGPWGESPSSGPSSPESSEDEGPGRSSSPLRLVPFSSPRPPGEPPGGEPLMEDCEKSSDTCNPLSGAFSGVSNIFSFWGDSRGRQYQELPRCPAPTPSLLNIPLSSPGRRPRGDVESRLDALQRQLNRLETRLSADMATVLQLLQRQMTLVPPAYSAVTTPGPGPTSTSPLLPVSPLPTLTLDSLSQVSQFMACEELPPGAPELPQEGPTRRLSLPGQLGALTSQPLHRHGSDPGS
row,Structure (SMILES),"hERG current change (%, negative = inhibition) at 10uM [%]"
1,O=C(CN1C(=O)CSC1=O)N1CCCCC1,-1.04
2,Cc1ccc(CNCCNCCO)s1.Cl,0.854
3,CCCCNc1c(-c2ccc(SC3CCCCC3)cc2)nc2ccccn12.O=C(O)C(F)(F)F,-6.31
4,Cc1c(CC(=O)O)c(=O)oc2c(C)c3occ(-c4ccc(Br)cc4)c3cc12,15.1
5,CC(NC(=O)C(=O)NN=C1CCC(C(C)(C)C)CC1)c1ccccc1 (centres unmarked),-21.4
6,O=S(=O)(Nc1cccc(-c2cn3cccnc3n2)c1)c1ccc(-c2ccccc2)cc1,-3.18
7,COc1ccc(OC)c(S(=O)(=O)NCCC2=CCCCC2)c1,-0.427
8,O=C(CSc1nnc(NC(=O)c2ccco2)s1)NCc1ccc2c(c1)OCO2,17.5
9,COc1ccc2c(c1)c(=O)oc1cc(OCC(=O)NC3CC3)ccc12,13.2
10,CC(C)Sc1nc2c(c(=O)[nH]1)C(c1cccs1)C1=C(CC(C)(C)CC1=O)N2 (centres unmarked),-11.3
11,CC(=O)c1cccc(OCc2cc(C(=O)NC3CCN(Cc4ccccc4)CC3)no2)c1,-62.9
12,COc1cccc(CNC(=O)Cc2ccc(S(=O)(=O)N3CCOCC3)s2)c1,4.9
13,COc1cc(C)nc(Nc2nc(C)c(C(C)=O)s2)n1,15.9
14,Cc1cccc(NC(=O)CSc2nc(-c3ccccc3)c(C#N)c(=O)[nH]2)c1C,-8.39
15,COc1cccc(C(=O)NNC(=O)/C=C/c2ccccc2)c1,17.7
16,CN(C1CCCCC1)S(=O)(=O)c1ccc(NC(=O)C2CCCCC2C(=O)O)cc1 (centres unmarked),3.45
17,O=C(Cn1cnc2cc([N+](=O)[O-])ccc2c1=O)NC(c1ccccc1)c1ccccc1,5.36
18,CCN(CC)S(=O)(=O)c1ccc(N2CCCC2)c(NC(=O)Cc2ccccc2)c1,-19.9
19,Cc1ccc(S(=O)(=O)N2CCN(C(=O)CN3CCN(C)CC3)C2)cc1,14.1

row,Structure (SMILES),"hERG current change (%, negative = inhibition) at 10uM [%]"
1,Cc1nc2nc(C)c(CCC(=O)NC(C)c3ccc4c(c3)OCCO4)c(C)n2n1.Cl (centres unmarked),12.7
2,COc1cc(CNC2CCCC2)cc(OC)c1,12
3,Nc1c(C(=O)Nc2ccc3c(c2)OCCO3)nnn1Cc1ccc(Cl)cc1,-2.19
4,CCOc1ccc(Cl)cc1S(=O)(=O)N1CCC(C(=O)NCC2CCCO2)CC1 (centres unmarked),-2.63
5,COc1ccc(CSCCNC(=S)Nc2ccccc2)cc1Cl,16.3
6,O=C(Nc1ccc(N2CCOCC2)cc1Cl)C1CCN(C(=O)OCc2ccccc2)CC1,-32.1
7,CCOCCCNCc1ccc(Cl)cc1,-13.7
8,C/C(=N/OC(=O)c1ccc(Cl)cc1Cl)c1oc(C)nc1C,6.42
9,O=C(c1cc(-c2ccc(Cl)s2)nc2ccccc12)N1CCCC1,4.92
10,Cc1ccc(C(=O)CC2(O)C(=O)N(CCc3ccccc3)c3ccc(Br)cc32)o1 (centres unmarked),-26.1
11,COc1ccc(/C=N/NC(=S)NCC2CCCO2)cc1 (centres unmarked),6.97
12,Cc1ccc(-c2ccc(OC(=O)c3ccc(=O)[nH]c3)c(C)c2)cc1,17.8
13,CCc1cccc(C)c1N(C(=O)Cn1c(=O)[nH]c2ccccc21)C(C)COC (centres unmarked),-4.31
14,O=C1NC(=S)N/C1=C/c1cccn1-c1ccc([N+](=O)[O-])cc1,12.8
15,COc1ccccc1N=C1NC(=O)/C(=C/c2ccc(N(C)C)cc2)S1,10.5
16,O=C(c1ccco1)N1CCN(C(=S)NC2CC3CCC2C3)CC1 (centres unmarked),-67.3
17,FC(F)(F)c1cccnc1N1CCN(c2ncnc3nc[nH]c23)CC1,4.69
18,CCOc1ccc(CNC(=O)CCCn2nc(CC)n3c(cc4occc43)c2=O)cc1,-24.7
19,Cc1nn(-c2ccccc2)c(C)c1NC(=O)COc1ccc(Cl)cc1Cl,-28.6

row,Structure (SMILES),"hERG current change (%, negative = inhibition) at 10uM [%]"
1,Cc1cccc(NC(=O)c2nc[nH]c2C(=O)N2CCC(C)CC2)c1,1.29
2,O=C1SCC(c2ccccc2)=NN1Cc1ccccc1,6.54
3,CCCCN(CC)C(=O)c1cc2c(=O)[nH]c3ccc(C)cc3c2s1,8.37
4,CCOC(=O)/C(C#N)=C1\CCCN1CC(N)=S,2.57
5,Clc1ccc(Cn2ccc3ccccc32)cn1,-5.12
6,CSCCC(NS(=O)(=O)/C=C/c1ccccc1)C(=O)N1CCC(C)CC1 (centres unmarked),-36.5
7,CCN(CC)C(=O)Oc1cc(=O)n2c3c(cccc13)CCC2,-12.5
8,O=C(COC(=O)CNS(=O)(=O)/C=C/c1ccccc1)Nc1cc(S(=O)(=O)N2CCCCC2)ccc1Cl,1.25
9,CC(C)Cc1nnc(NC(=O)CN2C(=O)NC3(CC(C)CC(C)(C)C3)C2=O)s1 (centres unmarked),-20.5
10,NC(=O)c1nsc(C(=O)N(c2ccccc2)C(C(=O)NCc2ccc(F)cc2)c2ccco2)c1N (centres unmarked),12.2
11,CCN(CC)C(=O)CN(c1ccc(Cl)cc1)S(=O)(=O)c1ccccc1,-21.4
12,COc1ccc(O)c(/C=N/NC(=O)c2c(C)nnn2-c2nonc2N)c1,27.1
13,CC(=O)c1cc(CN2CCN(C3CCN(C(C)C)CC3)C(CCO)C2)cs1 (centres unmarked),-3.56
14,O=C(NCCS(=O)(=O)NC1CCCCC1)c1ccccc1,-11.9
15,Cc1c(CCOC(=O)C23CC4CC(CC(C)(C4)C2)C3)sc[n+]1Cc1ccccc1.[Cl-],-34.5
16,O=c1cc(CN2CCN(S(=O)(=O)c3ccccc3[N+](=O)[O-])CC2)nc2sccn12,-53.7
17,Cc1ccccc1NC(=O)Cn1c(=O)n(CC2CCCO2)c(=O)c2ccccc21 (centres unmarked),13
18,Cl.Nc1cc(Cl)ccc1Oc1ccc(Cl)cc1,7.63

# — publication PMC4336329 (PLoS ONE, 2015)
